Assay results published in PubChem BioAssay AID1645886 (National Center for Advancing Translational Sciences (NCATS), 2021).
Where “and” joins values, the source holds several entries; their conditions need not be identical. Equal entries are not always repeated. In all, about 16,000 compounds went through this assay and about 260 (1.6%) were called active. The shares of active, inactive and inconclusive entries below differ from those in the screen. Calls come from the whole dose curve; as a rule, active = well fitted inhibition curve with a large enough effect; inconclusive = small, poorly fitted or top-dose-only effect; inactive = no such curve, though single readings can be large or run the other way. Potencies beside an inconclusive call are fits to weak or partial responses and may not hold up. Some compounds were tested as several samples or in several runs, with calls that do not always agree.

Each molecule was assayed against Rap guanine nucleotide exchange factor 4 (Homo sapiens) (UniProt Q8WZA2) (assay: Validation qHTS for antagonist of cAMP-regulated guanine nucleotide exchange factor 4 (EPAC2)). Settings: EPAC2 Rap1B BODIPY-GDP exchange, fluorescence; activity, negative = inhibition: at 112 µM (top of the series).
Chain of UniProt Q8WZA2 (Q8WZA2 whole entry, looked up): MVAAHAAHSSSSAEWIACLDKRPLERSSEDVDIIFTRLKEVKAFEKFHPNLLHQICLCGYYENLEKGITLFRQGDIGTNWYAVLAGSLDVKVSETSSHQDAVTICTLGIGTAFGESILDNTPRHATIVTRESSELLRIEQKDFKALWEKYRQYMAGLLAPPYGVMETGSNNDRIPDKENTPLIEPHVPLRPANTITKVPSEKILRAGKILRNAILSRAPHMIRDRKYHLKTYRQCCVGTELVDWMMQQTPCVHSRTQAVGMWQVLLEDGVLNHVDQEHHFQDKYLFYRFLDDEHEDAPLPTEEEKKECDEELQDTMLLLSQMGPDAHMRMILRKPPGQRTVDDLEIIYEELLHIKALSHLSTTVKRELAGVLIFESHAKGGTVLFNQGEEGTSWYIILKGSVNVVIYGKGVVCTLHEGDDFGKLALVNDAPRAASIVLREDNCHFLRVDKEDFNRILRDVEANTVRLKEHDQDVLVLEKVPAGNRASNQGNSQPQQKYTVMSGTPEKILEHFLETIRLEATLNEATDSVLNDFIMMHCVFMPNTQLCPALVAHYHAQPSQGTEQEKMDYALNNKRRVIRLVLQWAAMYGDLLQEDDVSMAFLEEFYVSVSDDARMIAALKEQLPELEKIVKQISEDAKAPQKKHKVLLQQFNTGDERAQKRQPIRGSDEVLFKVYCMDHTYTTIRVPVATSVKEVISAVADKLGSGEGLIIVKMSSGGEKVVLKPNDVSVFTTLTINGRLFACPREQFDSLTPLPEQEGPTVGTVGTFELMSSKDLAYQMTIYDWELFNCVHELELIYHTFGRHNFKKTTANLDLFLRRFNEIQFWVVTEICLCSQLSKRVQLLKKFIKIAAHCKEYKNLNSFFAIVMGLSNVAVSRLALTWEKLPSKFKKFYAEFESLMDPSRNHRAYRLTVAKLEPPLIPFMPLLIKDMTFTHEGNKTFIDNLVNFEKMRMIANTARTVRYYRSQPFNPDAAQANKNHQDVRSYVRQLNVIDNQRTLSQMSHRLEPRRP
How it was run: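 Fluorescent exchange read-out: 100 nM EPAC2 with 250 nM RAP1B–BODIPY-GDP and 50 uM GDP; BODIPY-GDP release lowers fluorescence. Read at 480/540 nm every 5 min for 30 min at room temperature; normalized to 6.5 mM cAMP.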
Note: nearly all actives have a fitted effect of over 40% in size.
Potency is the fitted concentration of half-maximal effect; tags give direction and shape of the fitted curve.
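Throughout, for activity, negative = inhibition: 100% = activation by cAMP agonist control.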

Structure (SMILES) | Potency | activity, negative = inhibition
C#CCN1C(C)=C(C(=O)OC)C(c2cccc([N+](=O)[O-])c2)C(C(=O)OCC)=C1C (stereo not given) | active: 44.7 µM | 
O=S1(=O)CCO[C@H]2Cc3ccccc3[C@H]2N1Cc1ccccc1F | inconclusive: 63.1 µM [inhibitor, partial curve, poor fit] | 
Cc1nc2n(c(=O)c1CCN1CCC(c3noc4cc(F)ccc34)CC1)CCCC2 | inconclusive: 35.5 µM [inhibitor, single point] | 
CCC(=O)O[C@]1(C(=O)CCl)[C@@H](C)C[C@H]2[C@@H]3C[C@H](F)C4=CC(=O)C=C[C@]4(C)[C@@]3(F)[C@@H](O)C[C@@]21C | inconclusive: 44.7 µM [inhibitor, partial curve, poor fit] | 
CCOC(=O)/C=C/c1ccc2c(c1)S(=O)(=O)N(Cc1ccc(OC)cc1)[C@H]2CC(=O)OCC | inconclusive: 56.2 µM [inhibitor, partial curve, poor fit] | 
CC(C)Oc1ccc2c(=O)c3cc(C(=O)O)ccc3oc2c1 | inconclusive: 100 µM [inhibitor, partial curve, poor fit] | 
COc1cc2cc3c4c(cc(OC)c(OC)c4c2cc1OC)CCN3C | active: 50.1 µM | 
COc1ccccc1C1CN(Cc2cn(C)nc2C)Cc2ccccc2O1 (stereo not given) |  | inactive: -24.8%
O=C(NCC1Cc2cc(-c3cnc4ccccc4c3)cc(F)c2O1)c1cnsn1 (stereo not given) |  | inactive: -16.9%
COc1cccc(CN(C)C(=O)c2cnn(-c3nccc(-c4ccc5c(c4)OCO5)n3)c2C)c1 |  | inactive: -4.16%
Nc1c2ccccc2nc2ccccc12 (tested in a mixture with another compound) | active: 79.4 µM | 
CCCCNC(=O)NS(=O)(=O)c1ccc(C)cc1 | inconclusive: 17.8 µM [inhibitor, single point] | 
C[C@]12CC[C@@H]3c4ccc(O)cc4CC[C@H]3[C@@H]1CC[C@@H]2OP(=O)(O)O |  | inactive: 1.43%
[N-]=[N+]=N[C@@H](CCN1CC[C@H](NC(=O)OCc2ccccc2)CCC1=O)c1ccccc1 | inconclusive: 1.12 µM [inhibitor, full curve] | 
C(=C\c1ccnc2ccccc12)/c1ccc(N2CCNCC2)cc1 |  | inactive: -29.3%
CCCCCCCCCCC/C=C\C(C)(C)/C=C\CCCC(=O)O | active: 35.5 µM | inactive: 3% [at 11.4 µM]
CN(CC(=O)O)c1ccc(C=O)cc1 | inconclusive: 0.708 µM [inhibitor, full curve, poor fit] | 
Cc1cc2c(cc1C)N[C@]1(C[C@H]3CCCC(=O)N4CC[C@@H](C1)[C@@H]34)C(=Nc1ccccc1C)N2 | inconclusive: 89.1 µM [inhibitor, single point] | 
CCC1(C2CCN(C(=O)c3ccccc3C(C)=O)CC2)NC(=O)N(CCc2scnc2C)C1=O (stereo not given) | inconclusive: 79.4 µM [inhibitor, single point] | 
CC(=O)Nc1ccccc1-c1nc(CNC(=O)c2cc(C)ccc2C)c(C)o1 | inconclusive: 100 µM [inhibitor, single point] | 

Structure (SMILES) | Potency | activity, negative = inhibition
CC(=O)OC1c2c(ccc3ccc(=O)oc23)OC(C)(C)C1OC(=O)CC(C)C (stereo not given) | active: 39.8 µM | 
COc1cccc(CNc2ccc3nc(-c4ccc(N)cc4)c(OC)n3n2)c1 | inconclusive: 50.1 µM [inhibitor, partial curve, poor fit] | 
CC(=O)N1CCC[C@@]2(CCN(c3ccccc3)C2)C1 | inconclusive: 15.8 µM [inhibitor, partial curve, poor fit] | 
COc1ccc(CN2CCC3(CC2)c2ccccc2[C@@H](NC(=O)c2ccsc2)[C@@H]3OC)cc1O | inconclusive: 10 µM [inhibitor, full curve, poor fit] | 
CCOC(=O)C(=O)C1(C(=O)OCC)Oc2cc(OC)cc(OC)c2C(=O)C1c1ccccc1 (stereo not given) | inconclusive: 44.7 µM [inhibitor, partial curve] | 
O=S1(=O)CCOCCCN1Cc1cccc(C(F)(F)F)c1 | inconclusive: 89.1 µM [inhibitor, partial curve, poor fit] | 
Cc1cnc(SCc2ccccn2)nc1C1CCCN(C(=O)c2scc3c2CCCC3)C1 (stereo not given) | inconclusive: 20 µM [inhibitor, partial curve, poor fit] | 
COc1cccc(Nc2ncc3nc(C)c(=O)n(-c4ccccc4)c3n2)c1 |  | inactive: -19.3%
CCCCCCc1ccc(O)cc1O | inconclusive: 63.1 µM [inhibitor, partial curve, poor fit] and active: 39.8 µM | 
CC1(C)NC(=O)N(c2ccc([N+](=O)[O-])c(C(F)(F)F)c2)C1=O | inconclusive: 79.4 µM [inhibitor, partial curve, poor fit] and inconclusive: 44.7 µM [inhibitor, partial curve, poor fit] | 
CC(C)(c1ccc(O)cc1)c1ccc(O)cc1 | inconclusive: 100 µM [inhibitor, partial curve] | 
Cc1cc(O)c2c(c1)O[C@@]1(C)CC[C@H]3C(C)(C)CCCC34CO[C@@H]2[C@H]41 (stereo not given in full) | inconclusive: 28.2 µM [inhibitor, full curve] | 
NC(Cc1ccc(O)c(O)c1)C(=O)O (stereo not given) | inconclusive: 89.1 µM [inhibitor, single point] | 
COC(=O)[C@@H]1[C@H]2C[C@H]3c4[nH]c5ccccc5c4CCN3C[C@@H]2CC[C@@H]1O | inconclusive: 100 µM [inhibitor, single point] | 
COc1ccc(-c2nc3cnc(Nc4ccccc4)nc3n(CCC#N)c2=O)cc1 |  | inactive: -3.87%
CC(C)=CCC/C(C)=C\COc1c2ccoc2cc2oc(=O)ccc12 | inconclusive: 89.1 µM [inhibitor, partial curve, poor fit] | 
COC(=O)c1ccc(CN2CCOc3ccc(CN4CCC(O)(c5cccnc5)CC4)cc3C2)cc1 |  | inactive: 7.69%
C/C(=C(\CCOC(=O)c1ccccc1)SS/C(CCOC(=O)c1ccccc1)=C(/C)N(C=O)Cc1cnc(C)nc1N)N(C=O)Cc1cnc(C)nc1N |  | inactive: -2.53%
COc1cc(OC)c2c(c1)OC(c1ccccc1)CC2=O (stereo not given) | inconclusive: 89.1 µM [inhibitor, single point] | 
